Measurements as given in publication PMC6212790.
This is one part of the list. At the low end of the ranking, values are background and their order means little.
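Also: rank score from −0.5 (least bound) to 0.5 (best bound).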

The sequences below were run against T1, GST-Rok (full length) (UniProt O34857) (assay: protein binding microarray). Conditions: Rok is a gene silencer of Bacillus subtilis; high values mean tight binding; most listed sequences are background and not binding sites; double strand, one strand shown.
T1 sequence: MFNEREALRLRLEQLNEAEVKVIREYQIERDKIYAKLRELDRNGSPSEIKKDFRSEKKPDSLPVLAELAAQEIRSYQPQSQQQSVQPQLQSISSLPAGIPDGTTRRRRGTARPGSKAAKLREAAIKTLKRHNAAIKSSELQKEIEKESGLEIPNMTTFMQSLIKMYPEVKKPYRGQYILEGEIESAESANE
CCATGGTA showed a binding signal of 0.223 E-score.
CGGATTGC gave a binding signal of -0.176 E-score.
For ATCGAAAA, the binding signal was 0.0373 E-score.
CGCGCGTC showed a binding signal of -0.178 E-score.
CAACTCAA showed a binding signal of -0.124 E-score.
In the case of CGACTCAC, the binding signal is reported as -0.104 E-score.
For AACCGCCC, the binding signal was -0.131 E-score.
CACGGTCC gave a binding signal of -0.326 E-score.
Work on GCAGTAGA yielded a binding signal of 0.342 E-score.
Work on CAACAGAG yielded a binding signal of 0.0463 E-score.
ACGAACTG gave a binding signal of 0.0336 E-score.
Sequence GCAGCAAC has a binding signal of -0.142 E-score.
Work on CGACAGTC yielded a binding signal of -0.174 E-score.
Sequence CTTATGAA has a binding signal of 0.0948 E-score.
For CTTCAGGA, the binding signal was 0.0353 E-score.
GCATATGC was tested, and the binding signal was 0.129 E-score.
Work on GGGCGCGA yielded a binding signal of -0.256 E-score.
In the case of CGCGTACC, the binding signal is reported as -0.0588 E-score.
With TCCGCAGA the binding signal was -0.0726 E-score.
In the case of ACGAGTAT, the binding signal is reported as 0.148 E-score.
For AGGGCTTA, the binding signal was -0.309 E-score.
ACTGCAGC gave a binding signal of 0.0798 E-score.
CGGTTACA gave a binding signal of -0.158 E-score.
For ACGTACTC, the binding signal was 0.0411 E-score.
Work on ATTGAAAA yielded a binding signal of -0.0522 E-score.
Work on AACTGTAG yielded a binding signal of 0.308 E-score.
With AACACGTA the binding signal was 0.0614 E-score.
CACCAACG was tested, and the binding signal was -0.105 E-score.
ATTCATCC was tested, and the binding signal was -0.0146 E-score.
Work on AACGCCAA yielded a binding signal of -0.131 E-score.
For AGCAACGG, the binding signal was 0.208 E-score.
In the case of AATTAATC, the binding signal is reported as 0.27 E-score.
ACGAAATC gave a binding signal of 0.115 E-score.
Work on AGGTGCCC yielded a binding signal of -0.241 E-score.
GCTCCTGA gave a binding signal of -0.203 E-score.
With GCGGGAAA the binding signal was -0.0972 E-score.
In the case of CGAACCAG, the binding signal is reported as -0.116 E-score.
For GCCAACAA, the binding signal was -0.225 E-score.
Work on GCCACTCA yielded a binding signal of -0.242 E-score.
For ACGAGGAC, the binding signal was -0.201 E-score.
AGAAAACG was tested, and the binding signal was 0.0853 E-score.
Work on ATCCATCA yielded a binding signal of -0.102 E-score.
Work on AGTTCCGG yielded a binding signal of -0.0138 E-score.
CACCACTG showed a binding signal of -0.101 E-score.
AAAAGGGC gave a binding signal of -0.196 E-score.
ACCTCGTG showed a binding signal of -0.11 E-score.
Work on ACCAGGCT yielded a binding signal of -0.0921 E-score.
In the case of GGGGGAAC, the binding signal is reported as -0.338 E-score.
Work on CAGCATGG yielded a binding signal of -0.217 E-score.
ACTGGGAT gave a binding signal of 0.00597 E-score.
AGGCCCGG was tested, and the binding signal was -0.465 E-score.
Sequence TCCGGAGA has a binding signal of -0.109 E-score.
With AACGTCTC the binding signal was -0.125 E-score.
With ATTGGCGC the binding signal was -0.151 E-score.
CGGGATGC gave a binding signal of -0.249 E-score.
In the case of ATAGTGGC, the binding signal is reported as 0.0463 E-score.
Sequence AGAAGCGA has a binding signal of 0.0276 E-score.
Sequence CAGACCAA has a binding signal of -0.23 E-score.
In the case of ACTATTTC, the binding signal is reported as 0.322 E-score.
With ACTACTTA the binding signal was 0.432 E-score.
For ACTCCAGC, the binding signal was -0.00543 E-score.
GTGTAAAA gave a binding signal of 0.244 E-score.
TTCCAAAA gave a binding signal of 0.0554 E-score.
In the case of ATTGCCGA, the binding signal is reported as 0.0796 E-score.
AAGCCCCG gave a binding signal of -0.283 E-score.
With CCATCTGC the binding signal was -0.128 E-score.
CTGCGGAC gave a binding signal of 0.00589 E-score.
In the case of GGGTGACC, the binding signal is reported as -0.329 E-score.
Work on ATATAGTA yielded a binding signal of 0.456 E-score.
CTCCCGTA showed a binding signal of -0.203 E-score.
ACACTTCG showed a binding signal of -0.0743 E-score.
In the case of ATCTTAGA, the binding signal is reported as 0.00824 E-score.
AGGATGGC showed a binding signal of -0.255 E-score.
In the case of GACGATTA, the binding signal is reported as -0.0545 E-score.
With ATGGCCTG the binding signal was -0.342 E-score.
Sequence GCGAAGCC has a binding signal of -0.278 E-score.
ATTGACTA gave a binding signal of 0.179 E-score.
AAGCGACT showed a binding signal of 0.0908 E-score.
With ATCTAAAA the binding signal was 0.185 E-score.
CCATGGAA gave a binding signal of -0.0773 E-score.
For AGCGCCAG, the binding signal was -0.342 E-score.
With ATAGGGTA the binding signal was 0.127 E-score.
With CAGAGGCG the binding signal was -0.217 E-score.
Sequence CGAAGTAC has a binding signal of 0.196 E-score.
With AACCTCTA the binding signal was -0.0826 E-score.
For CCGCTGAG, the binding signal was -0.239 E-score.
With AATTTTGG the binding signal was -0.0172 E-score.
With ACGGAAAG the binding signal was -0.0193 E-score.
Sequence ACCGGGAT has a binding signal of -0.155 E-score.
CAGAGAAA gave a binding signal of -0.0586 E-score.
Sequence CTGGATTC has a binding signal of -0.116 E-score.
TCCTTTAA gave a binding signal of -0.233 E-score.
Sequence CCTTGTAC has a binding signal of 0.00133 E-score.
With GAAACGTC the binding signal was -0.309 E-score.
In the case of GCTTCGCA, the binding signal is reported as -0.216 E-score.
For GGGGCAAA, the binding signal was -0.12 E-score.
GATCTACC was tested, and the binding signal was 0.382 E-score.
GAATTGCC gave a binding signal of -0.00624 E-score.
ACCCAAGA gave a binding signal of -0.0666 E-score.
With CCACTTCC the binding signal was -0.101 E-score.
Sequence AAATGCTT has a binding signal of -0.0853 E-score.
In the case of TACTCTAA, the binding signal is reported as 0.0943 E-score.
Work on ATAGCTTG yielded a binding signal of 0.228 E-score.
With TGTACCAA the binding signal was 0.0996 E-score.
Sequence ACGACTAT has a binding signal of 0.0997 E-score.
GATTGCAA showed a binding signal of 0.0926 E-score.
AAAGGAAG was tested, and the binding signal was -0.141 E-score.
GCGTTCCC was tested, and the binding signal was -0.143 E-score.
TCAAGGCA gave a binding signal of -0.208 E-score.
With CCAGCGCG the binding signal was -0.192 E-score.
Work on AAACCTCC yielded a binding signal of -0.125 E-score.
Work on CGCCTCCG yielded a binding signal of -0.288 E-score.
With AGCAATGA the binding signal was -0.134 E-score.
In the case of AATGTATG, the binding signal is reported as 0.272 E-score.
CGTTCCCA was tested, and the binding signal was -0.163 E-score.
With GTGTGAAA the binding signal was -0.138 E-score.
For GAATCGAC, the binding signal was 0.0717 E-score.
Work on GAAGTCAA yielded a binding signal of -0.019 E-score.
Work on GCAGCGGC yielded a binding signal of -0.328 E-score.
In the case of CGTAAGAC, the binding signal is reported as 0.0556 E-score.
ACTCACCG gave a binding signal of 0.07 E-score.
CTTGAAAC showed a binding signal of -0.141 E-score.
CTGGTAGA showed a binding signal of 0.335 E-score.
For GCCTTCGC, the binding signal was -0.165 E-score.
GTTAATCA showed a binding signal of 0.0792 E-score.
Work on GGCGTATA yielded a binding signal of 0.0667 E-score.
AAATTGTT was tested, and the binding signal was 0.238 E-score.
For AATGTTCT, the binding signal was 0.149 E-score.
In the case of AGTACCGC, the binding signal is reported as -0.12 E-score.
With AGTTGAAT the binding signal was 0.0921 E-score.
ACCAGATC gave a binding signal of -0.15 E-score.
For ACTATCGA, the binding signal was 0.325 E-score.
CGAGCTCA showed a binding signal of -0.216 E-score.
In the case of CTGGGCTC, the binding signal is reported as -0.388 E-score.
Work on ACCCGTAA yielded a binding signal of -0.0332 E-score.
TGGCTTAA gave a binding signal of -0.0862 E-score.
CCGTAACA gave a binding signal of 0.0529 E-score.
With AAGAAAGA the binding signal was -0.0387 E-score.
For CCCTGCTA, the binding signal was -0.128 E-score.
With CGACACAG the binding signal was -0.021 E-score.
TAAGAGGA showed a binding signal of -0.15 E-score.
GGTCGGTA was tested, and the binding signal was -0.144 E-score.
GAAGTGAC showed a binding signal of -0.161 E-score.
With GCCGACCC the binding signal was -0.375 E-score.
ATATGAAG showed a binding signal of 0.107 E-score.
CTATGCAA was tested, and the binding signal was 0.118 E-score.
CTGAGCAC was tested, and the binding signal was -0.124 E-score.
Sequence AAGTTCAA has a binding signal of 0.0858 E-score.
Work on ATTGGTAA yielded a binding signal of 0.265 E-score.
For CACTACAG, the binding signal was -0.0355 E-score.
AGCACTGA showed a binding signal of -0.136 E-score.
In the case of GGGAGTCA, the binding signal is reported as -0.189 E-score.
In the case of GCCCAGGA, the binding signal is reported as -0.196 E-score.
In the case of ACCTAAAA, the binding signal is reported as 0.306 E-score.
Sequence CCAGTATA has a binding signal of 0.235 E-score.
Sequence GTTTGGGA has a binding signal of 0.0158 E-score.
CAGCCAAC gave a binding signal of -0.0888 E-score.
CCGCGAAA showed a binding signal of -0.00967 E-score.
Work on AGTACTCC yielded a binding signal of -0.106 E-score.
TCACAGAA showed a binding signal of 0.0426 E-score.
Work on AGATTATA yielded a binding signal of 0.276 E-score.
Work on AAGGTGTA yielded a binding signal of 0.028 E-score.
CCACATAC gave a binding signal of 0.181 E-score.
In the case of ACGTATTA, the binding signal is reported as 0.287 E-score.
CATGAATC showed a binding signal of 0.0791 E-score.
AGATCGGA was tested, and the binding signal was 0.035 E-score.
AGTTGGCC showed a binding signal of -0.0479 E-score.
Work on TATGCAGA yielded a binding signal of 0.182 E-score.
AAACAGAG was tested, and the binding signal was -0.0699 E-score.
Sequence ACCAGGCC has a binding signal of -0.307 E-score.
AGTTAGAC was tested, and the binding signal was 0.211 E-score.
ATTAGCGG gave a binding signal of 0.239 E-score.
